Measurements published in publication PMC3126750.
Results are given in words; binding and its absence hold for the method and conditions named. Some binding calls cover weakened binding; strength is not graded here. Where a sequence is shown, tags or fusion partners need not be part of it.

The chains behind the UniProt entries cited, without tags or fusion partners.
UniProt P43593: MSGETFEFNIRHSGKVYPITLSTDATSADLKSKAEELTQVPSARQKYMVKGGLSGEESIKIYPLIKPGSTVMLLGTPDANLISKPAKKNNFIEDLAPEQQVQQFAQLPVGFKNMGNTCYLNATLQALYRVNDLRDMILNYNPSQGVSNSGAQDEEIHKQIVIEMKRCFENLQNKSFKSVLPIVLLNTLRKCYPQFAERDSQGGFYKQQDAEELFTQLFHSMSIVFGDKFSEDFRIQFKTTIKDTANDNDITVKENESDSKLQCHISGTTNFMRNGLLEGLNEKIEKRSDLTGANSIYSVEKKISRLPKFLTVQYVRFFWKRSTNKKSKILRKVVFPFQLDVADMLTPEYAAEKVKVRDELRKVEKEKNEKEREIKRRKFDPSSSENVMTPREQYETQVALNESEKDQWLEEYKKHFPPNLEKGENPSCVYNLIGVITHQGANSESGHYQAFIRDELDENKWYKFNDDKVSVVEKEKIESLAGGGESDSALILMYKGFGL
UniProt P48510: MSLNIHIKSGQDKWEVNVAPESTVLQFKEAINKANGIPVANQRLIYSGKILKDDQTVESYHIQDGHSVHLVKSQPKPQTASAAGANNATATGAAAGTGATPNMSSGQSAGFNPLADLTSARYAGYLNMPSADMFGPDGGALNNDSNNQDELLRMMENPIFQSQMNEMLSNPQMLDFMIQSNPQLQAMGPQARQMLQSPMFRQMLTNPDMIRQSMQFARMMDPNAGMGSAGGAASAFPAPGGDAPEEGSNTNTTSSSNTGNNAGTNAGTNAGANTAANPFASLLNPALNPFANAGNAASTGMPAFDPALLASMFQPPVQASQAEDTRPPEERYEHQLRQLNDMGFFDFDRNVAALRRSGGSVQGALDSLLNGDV

T1: Rpn1^(391 to 642) fused to Gal4-DBD (S. cerevisiae) (UniProt P38764)
T1 sequence: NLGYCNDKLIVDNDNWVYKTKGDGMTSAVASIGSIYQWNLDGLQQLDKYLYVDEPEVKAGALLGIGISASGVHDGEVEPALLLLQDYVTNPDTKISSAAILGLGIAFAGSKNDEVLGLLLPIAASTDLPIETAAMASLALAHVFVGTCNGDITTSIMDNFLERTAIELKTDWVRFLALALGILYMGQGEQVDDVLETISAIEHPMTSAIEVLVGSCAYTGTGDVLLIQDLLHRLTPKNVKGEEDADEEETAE

B1: Gal4-AD fused to Rad23 (protein, UniProt P32628 1-398)
chain: MVSLTFKNFKKEKVPLDLEPSNTILETKTKLAQSISCEESQIKLIYSGKVLQDSKTVSECGLKDGDQVVFMVSQKKSTKTKVTEPPIAPESATTPGRENSTEASPSTDASAAPAATAPEGSQPQEEQTATTERTESASTPGFVVGTERNETIERIMEMGYQREEVERALRAAFNNPDRAVEYLLMGIPENLRQPEPQQQTAAAAEQPSTAATTAEQPAEDDLFAQAAQGGNASSGALGTTGGATDAAQGGPPGSIGLTVEDLLSLRQVVSGNPEALAPLLENISARYPQLREHIMANPEVFVSMLLEAVGDNMQDVMEGADDMVEGEDIEVTGEAAAAGLGQGEGEGSFQVDYTPEDDQAISRLCELGFERDLVIQVYFACDKNEEAAANILFSDHAD
B2: Gal4-AD fused to Ddi1 (protein, UniProt P40087 1-428)
chain: MDLTISNELTGEIYGPIEVSEDMALTDLIALLQADCGFDKTKHDLYYNMDILDSNRTQSLKELGLKTDDLLLIRGKISNSIQTDAATLSDEAFIEQFRQELLNNQMLRSQLILQIPGLNDLVNDPLLFRERLGPLILQRRYGGYNTAMNPFGIPQDEYTRLMANPDDPDNKKRIAELLDQQAIDEQLRNAIEYTPEMFTQVPMLYINIEINNYPVKAFVDTGAQTTIMSTRLAKKTGLSRMIDKRFIGEARGVGTGKIIGRIHQAQVKIETQYIPCSFTVLDTDIDVLIGLDMLKRHLACVDLKENVLRIAEVETSFLSEAEIPKSFQEGLPAPTSVTTSSDKPLTPTKTSSTLPPQPGAVPALAPRTGMGPTPTGRSTAGATTATGRTFPEQTIKQLMDLGFPRDAVVKALKQTNGNAEFAASLLFQ
B3: Gal4-AD fused to Rpn2 (protein, UniProt P32565 1-945)
chain: MSLTTAAPLLALLRENQDSVKTYALESINNVVDQLWSEISNELPDIEALYDDDTFSDREMAALIASKVYYNLGEYESAVKYALAAKDRFDIDEKSQFVETIVSKSIEMYVQEASKQYTKDEQFYTKDIIDPKLTSIFERMIEKCLKASELKLALGIALEGYRLDIIESALKSKLDQDSTSENVKIINYLLTLAITTVTNSKFRSSILRKSFDFLMNMPNCDYLTLNKVVVNLNDAGLALQLFKKLKEENDEGLSAQIAFDLVSSASQQLLEILVTELTAQGYDPALLNILSGLPTCDYYNTFLLNNKNIDIGLLNKSKSSLDGKFSLFHTAVSVANGFMHAGTTDNSFIKANLPWLGKAQNWAKFTATASLGVIHKGNLLEGKKVMAPYLPGSRASSRFIKGGSLYGLGLIYAGFGRDTTDYLKNIIVENSGTSGDEDVDVLLHGASLGIGLAAMGSANIEVYEALKEVLYNDSATSGEAAALGMGLCMLGTGKPEAIHDMFTYSQETQHGNITRGLAVGLALINYGRQELADDLITKMLASDESLLRYGGAFTIALAYAGTGNNSAVKRLLHVAVSDSNDDVRRAAVIALGFVLLRDYTTVPRIVQLLSKSHNAHVRCGTAFALGIACAGKGLQSAIDVLDPLTKDPVDFVRQAAMIALSMILIQQTEKLNPQVADINKNFLSVITNKHQEGLAKFGACVAQGIMNAGGRNVTIQLENADTGTLDTKSVVGLVMFSQFWYWFPLAHFLSLSFTPTTVIGIRGSDQAIPKFQMNCYAKEDAFSYPRMYEEASGKEVEKVATAVLSTTARAKARAKKTKKEKGPNEEEKKKEHEEKEKERETNKKGIKETKENDEEFYKNKYSSKPYKVDNMTRILPQQSRYISFIKDDRFVPVRKFKGNNGVVVLRDREPKEPVALIETVRQMKDVNAPLPTPFKVDDNVDFPSA

Target: T1, Rpn1^(391 to 642) fused to Gal4-DBD (S. cerevisiae)
Experiment: two-hybrid; reporter strain MaV203; Gal4-DBD fused to Rpn1 391-642 and Gal4-AD fusions; interaction indicated by growth on 100 mM 3-AT and lack of growth on 0.2% 5FOA

| Molecule | binding |
| --- | --- |
| Gal4-AD fused to Ubp6 (from UniProt P43593 1-499) (enzyme) | binds |
| Gal4-AD fused to Dsk2 (from UniProt P48510 1-373) | binds |
| B1 | binds |
| B2 | binds |
| B3 | no binding |
